Article PMC6919601, “Identification of Plasmodium dipeptidyl aminopeptidase allosteric inhibitors by high throughput screening” (PLoS ONE, 2019)
The campaign covered roughly 110,000 compounds. About 230 (0.21%) showed an effect of 50% or more. The list shows a part of the results.

These compounds were tested against DPAP1 (Plasmodium falciparum, UniProt Q8IIJ9) (assay: primary screen, percent inhibition; read by cleavage of a fluorogenic dipeptide substrate; higher = more effect of the substance).
Design: species or system P. falciparum D10 trophozoite lysates; single well
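Also: 30 min substrate incubation versus DMSO and 10 µM JCP410 controls.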

DPAP1, sequence (Q8IIJ9 whole entry, looked up): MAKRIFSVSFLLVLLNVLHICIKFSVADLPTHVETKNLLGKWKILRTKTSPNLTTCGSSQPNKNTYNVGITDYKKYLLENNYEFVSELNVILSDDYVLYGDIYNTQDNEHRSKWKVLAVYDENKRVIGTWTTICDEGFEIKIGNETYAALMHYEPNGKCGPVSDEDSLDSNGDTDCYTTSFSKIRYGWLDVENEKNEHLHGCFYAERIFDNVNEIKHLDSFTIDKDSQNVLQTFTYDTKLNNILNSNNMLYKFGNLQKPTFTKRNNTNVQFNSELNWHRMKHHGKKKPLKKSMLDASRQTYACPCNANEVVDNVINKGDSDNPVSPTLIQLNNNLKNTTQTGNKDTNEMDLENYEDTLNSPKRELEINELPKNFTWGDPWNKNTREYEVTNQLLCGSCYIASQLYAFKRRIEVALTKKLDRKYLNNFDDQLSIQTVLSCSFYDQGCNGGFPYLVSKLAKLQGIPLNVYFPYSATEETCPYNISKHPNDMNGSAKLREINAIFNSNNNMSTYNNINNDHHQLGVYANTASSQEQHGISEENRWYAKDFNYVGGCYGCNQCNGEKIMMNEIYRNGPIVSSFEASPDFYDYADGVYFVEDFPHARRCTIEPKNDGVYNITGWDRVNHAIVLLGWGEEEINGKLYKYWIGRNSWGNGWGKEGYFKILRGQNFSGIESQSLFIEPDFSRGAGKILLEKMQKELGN

| Compound | % Inhibition @ 10 uM [%] |
| --- | --- |
| COc1cc(C2NC(C(=O)O)CS2)ccc1OCc1ccc(C)cc1 (centres unmarked) | -2.92 |
| O=C(Nc1ccccc1)c1cccc(N2C(=O)C3CC=CCC3C2=O)c1 (centres unmarked) | -0.231 |
| CCCCCn1cc2c(c1-c1ccc(OC)cc1)c(=O)n(C)c(=O)n2C | 3.62 |
| CCN(CC)CC#CCC(O)(c1ccccc1)c1ccccc1 | -2.15 |
| CCOc1ccccc1N1CCN(Cc2ccccc2C)CC1 | -3.56 |
| CCn1c(/N=C/c2ccc(OCCC(C)C)cc2)nc2ccccc21 | 3.04 |
| COc1cc(C2NC(=O)NC(C)=C2C(=O)OCCc2ccccc2)ccc1O (centres unmarked) | -1.03 |
| Cc1ccc(SCC(=O)Nc2ccccc2)cc1 | -0.864 |
| COC(=O)Nc1ccccc1C(=O)NCc1ccc(Cl)cc1 | -0.519 |
| CCN(CCO)C(=O)c1cc(C(C)(C)C)cc(C(C)(C)C)c1 | -10 |
| CC(NC(=O)Nc1ccc(Cl)c(Cl)c1)c1ccccc1 (centres unmarked) | 4.34 |
| CCOc1cccc2cc(-c3nc(-c4cccs4)no3)c(=O)oc12 | 9.63 |
| CCn1cc(C(=O)NC2CCCC(C)C2C)c2cc(OC)c(OC)cc2c1=O (centres unmarked) | -0.972 |
| CCOC(=O)c1cc(-c2ccc(F)cc2)n(CC(=O)Nc2cc(C)ccn2)c1C | -7.35 |
| O=C(CN1C(=O)c2ccccc2S1(=O)=O)Nc1ccc(F)cc1F | -0.469 |
| NC1=NC(c2cccnc2)n2c(nc3ccccc32)N1 (centres unmarked) | 5.3 |
| OCCOCCN1CCN(CC2CC3C=CC2C3)CC1 (centres unmarked) | 0.472 |
| COc1ccccc1N1C(=O)NC(=O)/C(=C\c2ccc(O)cc2)C1=O | -4.23 |
| O=C(NCc1ccco1)c1cc2c(Cl)nc3ccccc3c2s1 | 3.6 |
| C1=C(CCNc2ncnc3c2nc2n3CCCCC2)CCCC1 | 1 |
| Cc1nc2nc(SCc3cc(=O)n4c(C)cccc4n3)nn2c(C)c1Cc1ccccc1 | -0.519 |
| CN(Cc1ccccc1)S(=O)(=O)c1ccc(NC(=O)C2CC2)cc1 | -1.04 |
| N#CC1=C(N)Oc2c(ccc3ccccc23)C1c1ccc([N+](=O)[O-])cc1 (centres unmarked) | -6.18 |
| CC(=O)NC(=O)/C(C#N)=C/Nc1ccc2ccccc2c1 | -2.87 |
| O=c1c(-c2nc3ccccc3s2)c(C(F)(F)F)oc2cc(O)ccc12 | -0.597 |

| Compound | % Inhibition @ 10 uM [%] |
| --- | --- |
| CC(C)C[C@H](NC(=O)c1ccc2c(c1)Cc1ccccc1-2)C(=O)NCC#N | 4.33 |
| COc1ccc(NC(=O)CN(Cc2ccccc2)S(C)(=O)=O)cc1 | -1.52 |
| CC1CCCC(NC(=O)C2CCN(c3nc4ccccc4n4cccc34)CC2)C1C (centres unmarked) | -6.66 |
| CCN(CC)c1nnc(-n2cccc2CN2CCN(c3ccccn3)CC2)s1 | -4.99 |
| COc1ccc(N(CC(=O)N2CCc3ccccc3C2)S(=O)(=O)c2ccc(C)cc2)cc1 | 1.96 |
| CC(C)CC(C)(C)CNC(=O)N[C@@H](CC1CCCCC1)C(=O)NCC#N | -1.83 |
| N=C1/C(=C\c2ccc(SC3CCCCC3)o2)C(=O)N=C2SC=NN12 | 2.14 |
| Clc1cccc(N2CCN(CC3CC4C=CC3C4)CC2)c1 (centres unmarked) | 0.472 |
| CC(C)CNC(=O)c1cc(-c2ccco2)on1 | -8.56 |
| COC(=O)c1ccc(OCC(O)CN(CCO)CCO)cc1 (centres unmarked) | 1.31 |
| Cc1ccc(NC2=C(Cl)C(=O)N(Cc3ccccc3)C2=O)c(C)c1 | -0.661 |
| Cc1cccc2c1-c1sc(C(=O)N(C)Cc3ccco3)cc1CO2 | -4.85 |
| CC(C)C[C@H](NC(=O)c1ccc(OCc2cccnc2)cc1)C(=O)NCC#N | 7.72 |
| CCOC(=O)c1s/c(=N\C(=O)c2ccc(S(=O)(=O)N3CCOCC3)cc2)n(C)c1C | 3.06 |
| CCOc1ccccc1N1CCN(Cc2nnc(S)n2CC)CC1 | 1.88 |
| O=C(NCCC1=CCCCC1)c1csc2ccccc12 | -3.83 |
| Cn1c(=O)[nH]c(=O)c2c1nc(N1CCOCC1)n2CCSc1nc2ccccc2[nH]1 | 0.275 |
| CCOc1ccccc1NC(=O)C(C)Oc1ccccc1C (centres unmarked) | 4.11 |
| Cc1cccc(Cc2c(C)nc3c(C(=O)NCCc4ccccc4)cnn3c2C)c1 | -16.3 |
| COc1ccc(CNc2nc(-c3cccnc3)nn2C(=O)c2ccc(C(C)(C)C)cc2)cc1 | -2.92 |
| COc1ccccc1Nc1nc(-c2ccc3ccccc3c2)cs1 | 4.38 |
| CCc1ccc(CNC(=O)c2cc3ccc4cccnc4c3[nH]2)cc1 | 5.23 |
| O=C(CN1C(=O)c2cccc3cccc1c23)NCc1ccco1 | -6.02 |
| O=C(NCC1CCCO1)c1ccc(CS(=O)c2ccc(Br)cc2)o1 (centres unmarked) | -3.32 |
| COc1cc(C2NC(C(=O)O)CS2)ccc1OCC(N)=O (centres unmarked) | -2.19 |
